# Assay results reported in the supplement of paper PMC4604168 (melanoma cell lines).
# The list shows a part of the results. Repeats are few or missing, and single values can be far off.
# Tested on: SkMel30
# Assay: cell count relative to DMSO control; melanoma cells; higher = more viable cells
# Details: library dose: standard library concentration; 72 h
# 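Further: cells treated in 1,536-well plates, then fixed and DAPI-stained, with nuclei counted from automated high-throughput microscope images.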
row,SMILES,cell count
1,"NC(=O)c1ccc(N(C(N)=O)c2c(F)cccc2F)nc1-c1ccc(F)cc1F + O=C(O)c1ccc(-c2c[nH]c3ncc(-c4ccccc4)cc23)cc1C1CCCC1 [GSK650394] (first compound 2 µM, partner dose 0.8 µM)",99.1%
2,"CCCCCCCCc1ccc(CCC(N)(CO)CO)cc1 [fingolimod] + CS(=O)(=O)CCNCc1ccc(-c2ccc3ncnc(Nc4ccc(OCc5cccc(F)c5)c(Cl)c4)c3c2)o1 [lapatinib] (first compound 10 µM, partner dose 4 µM)",5.87%
3,"CC(C)(C)c1cnc(CSc2cnc(NC(=O)C3CCNCC3)s2)o1 + CN(NC(=O)CC(=O)NN(C)C(=S)c1ccccc1)C(=S)c1ccccc1 [STA4783] (first compound 0.05 µM, partner dose 0.03 µM)",68.2%
4,"CCCCCCCCc1ccc(CCC(N)(CO)CO)cc1 [fingolimod] + COc1ccc(Cl)c(Nc2nc3ccccc3nc2NS(=O)(=O)c2cccc(NC(=O)C(C)(C)N)c2)c1 [XL147] (first compound 10 µM, partner dose 4 µM)",14.5%
5,"CCCCCCCCc1ccc(CCC(N)(CO)CO)cc1 [fingolimod] + C[C@@H]1CCN(C(=O)CC#N)C[C@@H]1N(C)c1ncnc2[nH]ccc12 [CP690550] (first compound 10 µM, partner dose 5 µM)",12.2%
6,"COc1cc2c(Oc3ccc4[nH]c(C)cc4c3F)ncnc2cc1OCCCN1CCCC1 [cediranib] + CCN(CC)CCCCNc1ncc2cc(-c3cc(OC)cc(OC)c3)c(NC(=O)NC(C)(C)C)nc2n1 [PD173074] (first compound 2 µM, partner dose 0.5 µM)",84.6%
7,"NC(=O)c1ccc(N(C(N)=O)c2c(F)cccc2F)nc1-c1ccc(F)cc1F + CN(C)S(=O)(=O)c1ccc2c(c1)/C(=C/c1cc3c([nH]1)CCCC3)C(=O)N2 [SU6656] (first compound 2 µM, partner dose 2 µM)",70.5%
8,"CCCCCCCCc1ccc(CCC(N)(CO)CO)cc1 [fingolimod] + COCC[n+]1c2c(n(Cc3cnccn3)c1C)C(=O)c1ccccc1C2=O [YM155] (first compound 10 µM, partner dose 0.002 µM)",13.5%
9,"CC(C)(C)c1cnc(CSc2cnc(NC(=O)C3CCNCC3)s2)o1 + COc1ccc2c(c1)CCC1C2CCC2(C)C(NCCCCCCN3C(=O)C=CC3=O)CCC12 [U73122] (first compound 0.05 µM, partner dose 2 µM)",85.1%
10,"CC(C)(C)c1cnc(CSc2cnc(NC(=O)C3CCNCC3)s2)o1 + COc1ccc(COc2ccc(Cc3cnc(N)nc3N)cc2OC)cc1 [GW2580] (first compound 0.05 µM, partner dose 5 µM)",75.7%

# Tested on: SkMel5
# Assay: as above
# Details: library dose: standard library concentration; 72 h
row,SMILES,cell count
1,"COc1cc2c(Oc3ccc4[nH]c(C)cc4c3F)ncnc2cc1OCCCN1CCCC1 [cediranib] + N#Cc1c(O)c2c(-c3ccc(-c4ccccc4O)cc3)csc2[nH]c1=O [A769662] (first compound 2 µM, partner dose 10 µM)",68.3%
2,"CC(C)(C)c1cnc(CSc2cnc(NC(=O)C3CCNCC3)s2)o1 + CN(C)S(=O)(=O)c1ccc2c(c1)/C(=C/c1cc3c([nH]1)CCCC3)C(=O)N2 [SU6656] (first compound 0.05 µM, partner dose 2 µM)",75.6%
3,"COc1cc2c(Oc3ccc4[nH]c(C)cc4c3F)ncnc2cc1OCCCN1CCCC1 [cediranib] + COc1ccc(COc2ccc(Cc3cnc(N)nc3N)cc2OC)cc1 [GW2580] (first compound 2 µM, partner dose 5 µM)",73.8%
4,"CCCCCCCCc1ccc(CCC(N)(CO)CO)cc1 [fingolimod] + OCCn1cc(-c2cnc3nnn(Cc4ccc5ncccc5c4)c3n2)cn1 [PF04217903] (first compound 10 µM, partner dose 5 µM)",68.9%
5,"NC(=O)c1ccc(N(C(N)=O)c2c(F)cccc2F)nc1-c1ccc(F)cc1F + Clc1ccc(Nc2nnc(Cc3ccncc3)c3ccccc23)cc1 [vatalanib] (first compound 2 µM, partner dose 10 µM)",59%
6,"CCc1ccc(CCOc2ccc(CC3SC(=O)NC3=O)cc2)nc1 (centres undefined) [pioglitazone] + CC(C)CCN1c2nc(Nc3cc(F)c(O)c(F)c3)ncc2N(C)C(=O)C1C [BID1870] (first compound 10 µM, partner dose 1 µM)",72.1%
7,"Cc1ccc(NC(=O)c2cccc(N(C)C)c2)cc1NC(=O)c1ccc(O)cc1 + CN(C)S(=O)(=O)c1ccc2c(c1)/C(=C/c1cc3c([nH]1)CCCC3)C(=O)N2 [SU6656] (first compound 10 µM, partner dose 2 µM)",52.1%
8,"NC(=O)c1ccc(N(C(N)=O)c2c(F)cccc2F)nc1-c1ccc(F)cc1F + Cc1cc(N2CCOCC2)cc2[nH]c(-c3c(NC[C@@H](O)c4cccc(Cl)c4)cc[nH]c3=O)nc12 [BMS536924] (first compound 2 µM, partner dose 1 µM)",58.3%
9,"Cc1ccc(NC(=O)c2cccc(N(C)C)c2)cc1NC(=O)c1ccc(O)cc1 + CCCCCCCCCCCC1=C(O)C(=O)C=C(O)C1=O [Embelin] (first compound 10 µM, partner dose 6 µM)",99.4%
10,"CN(NC(=O)CC(=O)NN(C)C(=S)c1ccccc1)C(=S)c1ccccc1 + Cn1cc(/C=C2\C(=O)Nc3cccnc32)c2ccccc21 [GW441756] (first compound 0.03 µM, partner dose 2 µM)",49.4%
11,"CCCCCCCCc1ccc(CCC(N)(CO)CO)cc1 [fingolimod] + O=C(O)[C@@H]1[O][Sb](=[O])([O][Sb]2(=[O])[O][C@H]([C@H](O)CO)[C@H](O)[C@H](C(=O)O)[O]2)[O][C@H]([C@H](O)CO)[C@@H]1O [stibogluconate] (first compound 10 µM, partner dose 10 µM)",66.3%
12,"Cc1ccc(NC(=O)c2cccc(N(C)C)c2)cc1NC(=O)c1ccc(O)cc1 + COc1cc(N2CCC(N3CCN(C)CC3)CC2)ccc1Nc1ncc(Cl)c(Nc2ccccc2S(=O)(=O)C(C)C)n1 [NVP-TAE684] (first compound 10 µM, partner dose 0.4 µM)",64.9%
13,"COc1cc2c(Oc3ccc4[nH]c(C)cc4c3F)ncnc2cc1OCCCN1CCCC1 [cediranib] + COc1cc(N2CCC(N3CCN(C)CC3)CC2)ccc1Nc1ncc(Cl)c(Nc2ccccc2S(=O)(=O)C(C)C)n1 [NVP-TAE684] (first compound 2 µM, partner dose 0.4 µM)",55%
14,"COc1cc2c(Oc3ccc4[nH]c(C)cc4c3F)ncnc2cc1OCCCN1CCCC1 [cediranib] + Cn1cc(/C=C2\C(=O)Nc3cccnc32)c2ccccc21 [GW441756] (first compound 2 µM, partner dose 2 µM)",49.1%
15,"COc1cc2c(Oc3ccc4[nH]c(C)cc4c3F)ncnc2cc1OCCCN1CCCC1 [cediranib] + Oc1cc(-c2nc(-c3ccccc3)[nH]c2-c2ccncc2)ccc1Cl [L779450] (first compound 2 µM, partner dose 1 µM)",61.6%
16,"NC(=O)c1ccc(N(C(N)=O)c2c(F)cccc2F)nc1-c1ccc(F)cc1F + Cc1nc(Nc2ncc(C(=O)Nc3c(C)cccc3Cl)s2)cc(N2CCN(CCO)CC2)n1 [dasatanib] (first compound 2 µM, partner dose 0.02 µM)",63.3%
17,"CC(C)(C)c1cnc(CSc2cnc(NC(=O)C3CCNCC3)s2)o1 + c1cc(-c2cnn3cc(-c4ccc(OCCN5CCCCC5)cc4)cnc23)ccn1 [Dorsomorphin] (first compound 0.05 µM, partner dose 2 µM)",35.5%
18,"CC(C)(C)c1cnc(CSc2cnc(NC(=O)C3CCNCC3)s2)o1 + C[C@@H]1CCN(C(=O)CC#N)C[C@@H]1N(C)c1ncnc2[nH]ccc12 [CP690550] (first compound 0.05 µM, partner dose 5 µM)",78.5%
19,"CC(C)(C)c1cnc(CSc2cnc(NC(=O)C3CCNCC3)s2)o1 + Oc1nc(-c2ccc(C(F)(F)F)cc2)nc2c1CSCC2 [XAV939] (first compound 0.05 µM, partner dose 10 µM)",62.9%
20,"NC(=O)c1ccc(N(C(N)=O)c2c(F)cccc2F)nc1-c1ccc(F)cc1F + C=C(c1ccc(C(=O)O)cc1)c1cc2c(cc1C)C(C)(C)CCC2(C)C [Bexarotene] (first compound 2 µM, partner dose 10 µM)",105%
21,"CCc1ccc(CCOc2ccc(CC3SC(=O)NC3=O)cc2)nc1 (centres undefined) [pioglitazone] + N#Cc1c(O)c2c(-c3ccc(-c4ccccc4O)cc3)csc2[nH]c1=O [A769662] (first compound 10 µM, partner dose 10 µM)",83.8%
22,"CC(C)(C)c1cnc(CSc2cnc(NC(=O)C3CCNCC3)s2)o1 + Cc1cc([N+](=O)[O-])ccc1NS(=O)(=O)c1cc(Cl)ccc1Cl [FH535] (first compound 0.05 µM, partner dose 5 µM)",61.7%
23,"NC(=O)c1ccc(N(C(N)=O)c2c(F)cccc2F)nc1-c1ccc(F)cc1F + CN(c1ncccc1CNc1nc(Nc2ccc3c(c2)CC(=O)N3)ncc1C(F)(F)F)S(C)(=O)=O [PF562271] (first compound 2 µM, partner dose 0.4 µM)",68.9%
24,"Cc1ccc(NC(=O)c2cccc(N(C)C)c2)cc1NC(=O)c1ccc(O)cc1 + Cc1cc(N2CCOCC2)cc2[nH]c(-c3c(NC[C@@H](O)c4cccc(Cl)c4)cc[nH]c3=O)nc12 [BMS536924] (first compound 10 µM, partner dose 1 µM)",64.1%
